The target in assay [1] is T1, GFP-NIP45 WT (HEK293 cells) (human) (UniProt Q8NCF5).
T1 sequence: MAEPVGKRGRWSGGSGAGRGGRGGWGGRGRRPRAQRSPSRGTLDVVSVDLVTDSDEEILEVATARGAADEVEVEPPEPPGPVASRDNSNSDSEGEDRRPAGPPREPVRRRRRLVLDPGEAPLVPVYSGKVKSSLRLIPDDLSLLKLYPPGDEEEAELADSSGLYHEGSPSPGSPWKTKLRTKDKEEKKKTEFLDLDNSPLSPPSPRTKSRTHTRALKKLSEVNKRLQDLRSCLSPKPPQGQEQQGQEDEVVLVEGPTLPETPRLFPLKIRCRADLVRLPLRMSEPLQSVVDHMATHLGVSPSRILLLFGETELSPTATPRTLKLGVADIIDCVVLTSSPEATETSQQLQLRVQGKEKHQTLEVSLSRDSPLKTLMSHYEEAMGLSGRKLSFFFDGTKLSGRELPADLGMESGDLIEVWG
In words: co-IP; GFP immunoprecipitates from whole-cell lysates of HEK293 cells transfected with GFP-NIP45 WT and Flag-HA-SLX4; western blot. A general note: A western blot detects proteins with antibodies after separation by electrophoresis.

The chains behind the UniProt entries cited, without tags or fusion partners.
UniProt Q8IY92: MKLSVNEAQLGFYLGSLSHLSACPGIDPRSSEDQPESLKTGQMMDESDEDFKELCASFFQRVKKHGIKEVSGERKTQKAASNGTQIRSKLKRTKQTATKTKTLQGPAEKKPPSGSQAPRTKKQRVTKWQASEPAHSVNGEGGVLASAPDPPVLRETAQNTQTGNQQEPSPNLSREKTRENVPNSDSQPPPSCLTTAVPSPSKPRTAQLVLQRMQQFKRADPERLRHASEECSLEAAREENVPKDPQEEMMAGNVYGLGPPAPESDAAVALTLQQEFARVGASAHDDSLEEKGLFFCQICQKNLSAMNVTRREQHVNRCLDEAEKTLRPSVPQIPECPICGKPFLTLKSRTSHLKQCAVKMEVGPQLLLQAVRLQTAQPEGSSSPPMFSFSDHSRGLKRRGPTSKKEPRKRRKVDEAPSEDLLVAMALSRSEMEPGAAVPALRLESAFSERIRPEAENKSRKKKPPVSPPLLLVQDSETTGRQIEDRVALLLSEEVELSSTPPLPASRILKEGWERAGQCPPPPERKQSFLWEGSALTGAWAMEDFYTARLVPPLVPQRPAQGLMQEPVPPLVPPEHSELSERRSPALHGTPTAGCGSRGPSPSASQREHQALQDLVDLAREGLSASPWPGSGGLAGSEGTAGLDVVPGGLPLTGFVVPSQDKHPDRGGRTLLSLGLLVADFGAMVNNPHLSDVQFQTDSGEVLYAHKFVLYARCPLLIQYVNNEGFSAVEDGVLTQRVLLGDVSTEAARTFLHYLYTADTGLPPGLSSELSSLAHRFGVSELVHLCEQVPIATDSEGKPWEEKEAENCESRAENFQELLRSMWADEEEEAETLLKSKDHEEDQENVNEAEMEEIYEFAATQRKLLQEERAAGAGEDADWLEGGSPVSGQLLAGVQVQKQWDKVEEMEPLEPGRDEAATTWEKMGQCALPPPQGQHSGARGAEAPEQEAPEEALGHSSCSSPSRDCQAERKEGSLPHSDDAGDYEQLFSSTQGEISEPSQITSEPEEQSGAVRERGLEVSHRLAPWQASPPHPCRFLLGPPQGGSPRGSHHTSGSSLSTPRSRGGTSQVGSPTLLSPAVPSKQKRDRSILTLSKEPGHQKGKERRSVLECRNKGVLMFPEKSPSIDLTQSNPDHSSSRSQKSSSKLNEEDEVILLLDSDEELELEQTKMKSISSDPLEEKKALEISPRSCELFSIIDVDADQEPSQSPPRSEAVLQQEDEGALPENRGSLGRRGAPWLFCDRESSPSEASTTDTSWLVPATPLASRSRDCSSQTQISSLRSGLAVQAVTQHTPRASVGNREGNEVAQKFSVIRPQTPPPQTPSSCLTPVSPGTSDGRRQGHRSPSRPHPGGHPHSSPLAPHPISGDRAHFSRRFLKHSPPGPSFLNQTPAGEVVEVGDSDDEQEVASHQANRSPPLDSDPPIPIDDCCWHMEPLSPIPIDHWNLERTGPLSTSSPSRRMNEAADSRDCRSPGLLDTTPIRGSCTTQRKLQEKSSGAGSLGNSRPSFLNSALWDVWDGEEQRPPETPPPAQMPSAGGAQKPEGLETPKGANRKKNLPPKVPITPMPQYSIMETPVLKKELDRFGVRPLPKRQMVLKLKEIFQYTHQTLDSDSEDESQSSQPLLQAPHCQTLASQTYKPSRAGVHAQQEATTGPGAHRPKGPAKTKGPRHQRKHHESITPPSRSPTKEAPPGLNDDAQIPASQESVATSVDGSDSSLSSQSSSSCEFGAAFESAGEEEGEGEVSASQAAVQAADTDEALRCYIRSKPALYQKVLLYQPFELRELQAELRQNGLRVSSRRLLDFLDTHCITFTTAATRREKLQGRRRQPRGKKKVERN
UniProt P63279: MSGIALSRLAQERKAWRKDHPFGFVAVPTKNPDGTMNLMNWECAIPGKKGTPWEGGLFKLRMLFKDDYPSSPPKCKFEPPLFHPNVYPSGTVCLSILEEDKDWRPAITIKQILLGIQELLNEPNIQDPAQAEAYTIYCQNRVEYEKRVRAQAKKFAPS

Assay [2] concerns the target T2, GFP-NIP45 WT (U2OS Flp-In T-REx NIP45-KO cells) (human) (UniProt Q8NCF5).
T2 sequence: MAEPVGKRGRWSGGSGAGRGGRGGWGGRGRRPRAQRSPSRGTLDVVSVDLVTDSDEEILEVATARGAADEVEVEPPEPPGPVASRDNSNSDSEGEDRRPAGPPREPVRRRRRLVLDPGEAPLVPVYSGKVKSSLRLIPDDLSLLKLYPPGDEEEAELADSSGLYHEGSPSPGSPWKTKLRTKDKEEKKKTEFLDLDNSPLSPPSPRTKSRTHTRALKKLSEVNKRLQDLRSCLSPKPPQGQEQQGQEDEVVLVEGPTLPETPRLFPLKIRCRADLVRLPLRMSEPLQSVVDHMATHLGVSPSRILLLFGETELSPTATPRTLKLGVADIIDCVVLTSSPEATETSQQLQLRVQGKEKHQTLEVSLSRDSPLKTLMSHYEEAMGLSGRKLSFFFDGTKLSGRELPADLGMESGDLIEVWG
In words: co-IP; GFP-trap pulldown from lysates of U2OS Flp-In T-REx NIP45-KO cells expressing GFP only or GFP-NIP45 alleles; low-salt buffer (50 mM Tris-HCl pH 7.5, 50 mM NaCl, 1 mM EDTA, 1% NP-40), 4 °C; immunoblot.

Assay [3] has as its target T3, GFP-NIP45 SLD2* (D394R) (human) (UniProt Q8NCF5).
T3 sequence: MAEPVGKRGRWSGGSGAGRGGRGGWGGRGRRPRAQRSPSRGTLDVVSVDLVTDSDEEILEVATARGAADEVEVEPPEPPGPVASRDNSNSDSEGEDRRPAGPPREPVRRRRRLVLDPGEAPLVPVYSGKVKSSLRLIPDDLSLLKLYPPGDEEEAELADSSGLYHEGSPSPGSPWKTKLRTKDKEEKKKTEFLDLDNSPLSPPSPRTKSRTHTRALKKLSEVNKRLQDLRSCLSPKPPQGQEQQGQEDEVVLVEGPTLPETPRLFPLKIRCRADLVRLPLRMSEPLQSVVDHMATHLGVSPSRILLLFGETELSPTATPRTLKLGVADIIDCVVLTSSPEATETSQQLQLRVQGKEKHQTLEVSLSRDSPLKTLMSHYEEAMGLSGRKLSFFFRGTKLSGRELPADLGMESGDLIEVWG
The description is as above.

The target in another assay is T4, GFP-NIP45 ΔSLD1 (human) (UniProt Q8NCF5).
T4 sequence: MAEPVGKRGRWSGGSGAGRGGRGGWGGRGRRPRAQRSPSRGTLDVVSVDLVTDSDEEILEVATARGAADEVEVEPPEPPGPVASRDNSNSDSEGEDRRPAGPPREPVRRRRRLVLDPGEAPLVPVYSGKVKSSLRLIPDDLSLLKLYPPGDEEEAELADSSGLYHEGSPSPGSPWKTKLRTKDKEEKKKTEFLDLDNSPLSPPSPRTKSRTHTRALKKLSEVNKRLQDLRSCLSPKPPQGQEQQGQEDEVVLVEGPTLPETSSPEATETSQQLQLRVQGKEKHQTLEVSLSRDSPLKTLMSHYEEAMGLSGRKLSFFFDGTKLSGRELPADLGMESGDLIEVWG
The assay is described as above.

In a further assay the target is T5, GFP-NIP45 ΔSLD2 (human) (UniProt Q8NCF5).
T5 sequence: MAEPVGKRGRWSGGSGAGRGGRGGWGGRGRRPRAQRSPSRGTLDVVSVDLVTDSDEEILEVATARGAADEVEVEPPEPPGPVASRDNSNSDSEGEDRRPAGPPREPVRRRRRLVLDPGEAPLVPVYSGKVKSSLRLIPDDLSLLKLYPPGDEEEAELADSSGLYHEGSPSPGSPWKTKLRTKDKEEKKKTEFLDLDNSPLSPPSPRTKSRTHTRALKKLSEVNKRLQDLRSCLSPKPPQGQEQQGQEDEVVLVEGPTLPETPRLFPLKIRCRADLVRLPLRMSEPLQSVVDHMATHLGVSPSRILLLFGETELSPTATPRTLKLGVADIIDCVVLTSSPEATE
The description is as above.

Assay [4] addresses T6, NFAT-interacting protein 45 (NIP45), endogenous (human (endogenous in HeLa)) (UniProt Q8NCF5).
T6 sequence: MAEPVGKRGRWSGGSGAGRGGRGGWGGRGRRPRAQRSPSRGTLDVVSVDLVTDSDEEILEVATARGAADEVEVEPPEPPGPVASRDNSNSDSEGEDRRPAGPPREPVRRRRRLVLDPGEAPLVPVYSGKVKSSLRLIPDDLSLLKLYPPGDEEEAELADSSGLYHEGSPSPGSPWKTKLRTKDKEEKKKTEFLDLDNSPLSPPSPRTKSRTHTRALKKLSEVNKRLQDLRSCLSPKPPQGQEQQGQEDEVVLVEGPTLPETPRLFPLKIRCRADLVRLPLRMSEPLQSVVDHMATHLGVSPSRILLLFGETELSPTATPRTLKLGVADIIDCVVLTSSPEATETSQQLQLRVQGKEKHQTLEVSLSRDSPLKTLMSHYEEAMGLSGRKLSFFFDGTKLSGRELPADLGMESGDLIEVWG
In words: co-IP; NIP45 immunoprecipitation (sheep anti-NIP45 on protein G beads, sheep IgG as control) from whole-cell lysates of HeLa wt and NIP45-KO cells; EBC buffer (50 mM Tris-HCl pH 7.5, 150 mM NaCl, 1 mM EDTA, 0.5% NP-40), 4 h at 4 °C; immunoblot.

Another assay has as its target GFP-SLX4 (human) (UniProt Q8IY92). The assay is described as follows: co-IP; GFP IPs (GFP-trap, low-salt buffer) from whole-cell lysates of parental U2OS cells or U2OS cells expressing GFP-SLX4, transfected with mCherry-NIP45; immunoblot.

Results are given in words; binding and its absence hold for the method and conditions named. In cells and extracts the contact can be indirect. Some results given as binding are weak or reduced against the parent protein; the word gives no strength. For some of these results: Tags and fused reporters may be left off the sequences shown.

In the case of “Flag-HA-SLX4 (from UniProt Q8IY92 1-1834)”, the binding result in assay [1] is given as “binds”.

For “SUMO E2 enzyme UBC9, endogenous (from UniProt P63279 1-158)”, the binding result in assay [2] was “binds”; in assay [3] it was “no binding”; with GFP-NIP45 ΔSLD1 (human) it was “binds”; with GFP-NIP45 ΔSLD2 (human), “no binding”; in assay [4], “binds”.

B1: mCherry-NIP45 (protein, UniProt Q8NCF5 1-419)
chain: MAEPVGKRGRWSGGSGAGRGGRGGWGGRGRRPRAQRSPSRGTLDVVSVDLVTDSDEEILEVATARGAADEVEVEPPEPPGPVASRDNSNSDSEGEDRRPAGPPREPVRRRRRLVLDPGEAPLVPVYSGKVKSSLRLIPDDLSLLKLYPPGDEEEAELADSSGLYHEGSPSPGSPWKTKLRTKDKEEKKKTEFLDLDNSPLSPPSPRTKSRTHTRALKKLSEVNKRLQDLRSCLSPKPPQGQEQQGQEDEVVLVEGPTLPETPRLFPLKIRCRADLVRLPLRMSEPLQSVVDHMATHLGVSPSRILLLFGETELSPTATPRTLKLGVADIIDCVVLTSSPEATETSQQLQLRVQGKEKHQTLEVSLSRDSPLKTLMSHYEEAMGLSGRKLSFFFDGTKLSGRELPADLGMESGDLIEVWG
On to B1, for which the binding result in the assay with GFP-SLX4 (human) is “binds”.

Source of the values: publication PMC10497417.
